# Experimental data published in the supplement of paper PMC8728848.
# The list shows a part of the results.
# B1: Calsepa (Calystegia sepium), P93114 (protein)
# chain: MAVPMDTISGPWGNNGGNFWSFRPVNKINQIVISYGGGGNNPIALTFSSTKADGSKDTITVGGGGPDSITGTEMVNIGTDEYLTGISGTFGIYLDNNVLRSITFTTNLKAHGPYGQKVGTPFSSANVVGNEIVGFLGRSGYYVDAIGTYNRHK
# Legend:
# Assay in all cases: glycan array binding signal (z-score within array); higher = stronger binding
# Conditions in all cases: glycan notation: IUPAC condensed, linker removed
# [1] = target: Fuc(a1-2)Gal
# Outline: (§1)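 Columns mapping to the same glycan were averaged after glycan names were converted to IUPAC-condensed notation. The data come from 3228 arrays in the Consortium for Functional Glycomics database, limited to those with an available protein sequence. Binding is reported as a within-array Z-score averaged across arrays of one protein sequence and across linkers.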
# [2] = target: Fuc(a1-2)Gal(b1-3)GalNAc
# Outline: as §1
# [3] = target: Fuc(a1-2)Gal(b1-3)GalNAc(a1-3)[Fuc(a1-2)]Gal(b1-4)Glc
# Outline: as §1
# [4] = target: Fuc(a1-2)Gal(b1-3)GalNAc(a1-3)[Fuc(a1-2)]Gal(b1-4)GlcNAc
# Outline: as §1
# [5] = target: Fuc(a1-2)Gal(b1-3)GalNAc(b1-3)Gal
# Outline: as §1
# [6] = target: Fuc(a1-2)Gal(b1-3)GalNAc(b1-3)Gal(a1-4)Gal(b1-4)Glc
# Outline: as §1
# [7] = target: Fuc(a1-2)Gal(b1-3)GalNAc(b1-4)[Neu5Ac(a2-3)]Gal(b1-4)Glc
# Outline: as §1
# [8] = target: Fuc(a1-2)Gal(b1-3)GlcNAc
# Outline: as §1
# [9] = target: Fuc(a1-2)Gal(b1-3)GlcNAc(b1-2)Man(a1-3)[Fuc(a1-2)Gal(b1-3)GlcNAc(b1-2)Man(a1-6)]Man(b1-4)GlcNAc(b1-4)GlcNAc
# Outline: as §1
# [10] = target: Fuc(a1-2)Gal(b1-3)GlcNAc(b1-2)Man(a1-3)[Fuc(a1-2)Gal(b1-3)GlcNAc(b1-2)Man(a1-6)]Man(b1-4)GlcNAc(b1-4)[Fuc(a1-6)]GlcNAc
# Outline: as §1
# [11] = target: Fuc(a1-2)Gal(b1-3)GlcNAc(b1-3)Gal(b1-4)Glc
# Outline: as §1
# [12] = target: Fuc(a1-2)Gal(b1-3)GlcNAc(b1-3)GalNAc
# Outline: as §1
# [13] = target: Fuc(a1-2)Gal(b1-3)GlcNAc(b1-3)[Fuc(a1-2)Gal(b1-3)GlcNAc(b1-6)]GalNAc
# Outline: as §1
# [14] = target: Fuc(a1-2)Gal(b1-3)GlcNAc(b1-3)[Fuc(a1-3)[Gal(b1-4)]GlcNAc(b1-6)]Gal(b1-4)Glc
# Outline: as §1
# [15] = target: Fuc(a1-2)Gal(b1-3)GlcNAc(b1-3)[Gal(b1-4)GlcNAc(b1-6)]Gal(b1-4)Glc
# Outline: as §1
# [16] = target: Fuc(a1-2)Gal(b1-3)GlcNAc(b1-3)[Gal(b1-4)[Fuc(a1-3)]GlcNAc(b1-6)]Gal(b1-4)Glc
# Outline: as §1
# [17] = target: Fuc(a1-2)Gal(b1-3)GlcNAc(b1-3)[Neu5Ac(a2-6)Gal(b1-4)GlcNAc(b1-6)]Gal(b1-4)Glc
# Outline: as §1
# [18] = target: Fuc(a1-2)Gal(b1-3)GlcNAc6S
# Outline: as §1
# [19] = target: Fuc(a1-2)Gal(b1-3)[Fuc(a1-4)]GlcNAc
# Outline: as §1
# [20] = target: Fuc(a1-2)Gal(b1-3)[Fuc(a1-4)]GlcNAc(b1-2)Man(a1-3)[Fuc(a1-2)Gal(b1-3)[Fuc(a1-4)]GlcNAc(b1-2)Man(a1-6)]Man(b1-4)GlcNAc(b1-4)GlcNAc
# Outline: as §1
# [21] = target: Fuc(a1-2)Gal(b1-3)[Fuc(a1-4)]GlcNAc(b1-2)Man(a1-6)[Fuc(a1-2)Gal(b1-3)[Fuc(a1-4)]GlcNAc(b1-2)Man(a1-3)]Man(b1-4)GlcNAc(b1-4)[Fuc(a1-6)]GlcNAc
# Outline: as §1
# [22] = target: Fuc(a1-2)Gal(b1-3)[Fuc(a1-4)]GlcNAc(b1-3)[Fuc(a1-3)[Gal(b1-4)]GlcNAc(b1-6)]Gal(b1-4)Glc
# Outline: as §1
# [23] = target: Fuc(a1-2)Gal(b1-3)[Fuc(a1-4)]GlcNAc(b1-3)[Gal(b1-4)GlcNAc(b1-6)]Gal(b1-4)Glc
# Outline: as §1
# [24] = target: Fuc(a1-2)Gal(b1-4)Glc
# Outline: as §1
# [25] = target: Fuc(a1-2)Gal(b1-4)Glc6S
# Outline: as §1
# [26] = target: Fuc(a1-2)Gal(b1-4)GlcNAc
# Outline: as §1
# [27] = target: Fuc(a1-2)Gal(b1-4)GlcNAc(b1-2)Man
# Outline: as §1
# [28] = target: Fuc(a1-2)Gal(b1-4)GlcNAc(b1-2)Man(a1-3)[Fuc(a1-2)Gal(b1-4)GlcNAc(b1-2)Man(a1-6)]Man(b1-4)GlcNAc(b1-4)GlcNAc
# Outline: as §1
# [29] = target: Fuc(a1-2)Gal(b1-4)GlcNAc(b1-2)Man(a1-3)[Fuc(a1-2)Gal(b1-4)GlcNAc(b1-2)Man(a1-6)]Man(b1-4)GlcNAc(b1-4)[Fuc(a1-6)]GlcNAc
# Outline: as §1
# [30] = target: Fuc(a1-2)Gal(b1-4)GlcNAc(b1-2)[Fuc(a1-2)Gal(b1-4)GlcNAc(b1-4)]Man(a1-3)[Fuc(a1-2)Gal(b1-4)GlcNAc(b1-2)Man(a1-6)]Man(b1-4)GlcNAc(b1-4)GlcNAc
# Outline: as §1
# [31] = target: Fuc(a1-2)Gal(b1-4)GlcNAc(b1-3)Gal(b1-4)GlcNAc
# Outline: as §1
# [32] = target: Fuc(a1-2)Gal(b1-4)GlcNAc(b1-3)Gal(b1-4)GlcNAc(b1-3)Gal(b1-4)GlcNAc
# Outline: as §1
# [33] = target: Fuc(a1-2)Gal(b1-4)GlcNAc(b1-3)GalNAc
# Outline: as §1
# [34] = target: Fuc(a1-2)Gal(b1-4)GlcNAc(b1-3)[Fuc(a1-2)Gal(b1-4)GlcNAc(b1-6)]GalNAc
# Outline: as §1
# [35] = target: Fuc(a1-2)Gal(b1-4)GlcNAc(b1-6)GalNAc
# Outline: as §1
# [36] = target: Fuc(a1-2)Gal(b1-4)GlcNAc6S
# Outline: as §1
# [37] = target: Fuc(a1-2)Gal(b1-4)[Fuc(a1-3)]GlcNAc
# Outline: as §1
# [38] = target: Fuc(a1-2)Gal(b1-4)[Fuc(a1-3)]GlcNAc(b1-2)Man(a1-3)[Fuc(a1-2)Gal(b1-4)[Fuc(a1-3)]GlcNAc(b1-2)Man(a1-6)]Man(b1-4)GlcNAc(b1-4)GlcNAc
# Outline: as §1
# [39] = target: Fuc(a1-2)Gal(b1-4)[Fuc(a1-3)]GlcNAc(b1-2)Man(a1-6)[Fuc(a1-2)Gal(b1-4)[Fuc(a1-3)]GlcNAc(b1-2)Man(a1-3)]Man(b1-4)GlcNAc(b1-4)[Fuc(a1-6)]GlcNAc
# Outline: as §1
# [40] = target: Fuc(a1-2)Gal(b1-4)[Fuc(a1-3)]GlcNAc(b1-2)[Fuc(a1-2)Gal(b1-4)[Fuc(a1-3)]GlcNAc(b1-4)]Man(a1-3)[Fuc(a1-2)Gal(b1-4)[Fuc(a1-3)]GlcNAc(b1-2)Man(a1-6)]Man(b1-4)GlcNAc(b1-4)GlcNAc
# Outline: as §1
# [41] = target: Fuc(a1-2)Gal(b1-4)[Fuc(a1-3)]GlcNAc(b1-3)Gal(b1-4)[Fuc(a1-3)]GlcNAc
# Outline: as §1
# [42] = target: Fuc(a1-2)Gal(b1-4)[Fuc(a1-3)]GlcNAc(b1-3)Gal(b1-4)[Fuc(a1-3)]GlcNAc(b1-3)Gal(b1-4)[Fuc(a1-3)]GlcNAc
# Outline: as §1
# [43] = target: Fuc(a1-2)Gal(b1-4)[Fuc(a1-3)]GlcNAc(b1-3)GalNAc
# Outline: as §1
# [44] = target: Fuc(a1-2)Gal(b1-4)[Fuc(a1-3)]GlcNAc(b1-3)[Neu5Ac(a2-6)Gal(b1-4)GlcNAc(b1-6)]Gal(b1-4)Glc
# Outline: as §1
# [45] = target: Fuc(a1-2)Gal6S(b1-3)GlcNAc
# Outline: as §1
binder,measurement,setting,value
B1,glycan array binding signal (z-score),[1],-0.248
same,glycan array binding signal (z-score),[2],-0.215
same,glycan array binding signal (z-score),[3],-0.269
same,glycan array binding signal (z-score),[4],-0.276
same,glycan array binding signal (z-score),[5],-0.232
same,glycan array binding signal (z-score),[6],-0.254
same,glycan array binding signal (z-score),[7],-0.252
same,glycan array binding signal (z-score),[8],-0.251
same,glycan array binding signal (z-score),[9],-0.215
same,glycan array binding signal (z-score),[10],-0.262
same,glycan array binding signal (z-score),[11],-0.244
same,glycan array binding signal (z-score),[12],-0.268
same,glycan array binding signal (z-score),[13],-0.266
same,glycan array binding signal (z-score),[14],-0.268
same,glycan array binding signal (z-score),[15],-0.277
same,glycan array binding signal (z-score),[16],-0.16
same,glycan array binding signal (z-score),[17],-0.269
same,glycan array binding signal (z-score),[18],-0.225
same,glycan array binding signal (z-score),[19],-0.241
same,glycan array binding signal (z-score),[20],-0.224
same,glycan array binding signal (z-score),[21],-0.265
same,glycan array binding signal (z-score),[22],-0.26
same,glycan array binding signal (z-score),[23],-0.222
same,glycan array binding signal (z-score),[24],-0.246
same,glycan array binding signal (z-score),[25],-0.242
same,glycan array binding signal (z-score),[26],-0.249
same,glycan array binding signal (z-score),[27],-0.271
same,glycan array binding signal (z-score),[28],1.08
same,glycan array binding signal (z-score),[29],-0.242
same,glycan array binding signal (z-score),[30],-0.245
same,glycan array binding signal (z-score),[31],-0.248
same,glycan array binding signal (z-score),[32],-0.243
same,glycan array binding signal (z-score),[33],-0.267
same,glycan array binding signal (z-score),[34],-0.268
same,glycan array binding signal (z-score),[35],-0.26
same,glycan array binding signal (z-score),[36],-0.249
same,glycan array binding signal (z-score),[37],-0.246
same,glycan array binding signal (z-score),[38],-0.226
same,glycan array binding signal (z-score),[39],-0.267
same,glycan array binding signal (z-score),[40],-0.257
same,glycan array binding signal (z-score),[41],-0.252
same,glycan array binding signal (z-score),[42],-0.246
same,glycan array binding signal (z-score),[43],-0.26
same,glycan array binding signal (z-score),[44],-0.274
same,glycan array binding signal (z-score),[45],-0.274
